Sequences with one replicate were seen in a single cluster, so their values are uncertain.
These sequences were tested on ATP (assay: switch fluorescence ratio, 500 uM ATP over buffer (Cy3 cluster intensity, sum of 5 cycles each) (fold (ratio)); higher = stronger signal-on switching upon ATP binding; sequences stand for … in TCGTCGGCAGCGTCAGATGTGTATAAGAGACAGTTTTTTTTTTTTTTTTTTTTTTTTT…TC). Settings: aptamer strand: ATP DNA aptamer (quencher-CACCTGGGGGAGTATTGCGGAGGAAGG + anchor), 100 nM annealed; ATP concentration: 500 uM; one replicate.
Summary of the method: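 After annealing to 100 nM quencher-labelled ATP aptamer, Cy3-labelled switching-strand clusters on a modified Illumina MiSeq flow-cell were imaged in selection buffer. A second image followed after 15 min with 500 uM ATP at 22 °C, and five such buffer/ATP cycles were done, each separated by NaOH stripping and re-annealing. The fluorescence ratio, averaged per switch-domain sequence, is summed target-cycle over summed buffer-cycle Cy3 intensity per cluster, with clusters outside 100-1000 RFU excluded.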
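Also: ATP exposure 15 min at 22 °C before imaging.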

Row | Sequence | switch fluorescence ratio
1 | TTGCTGCTTG | 0.988
2 | TTGCTGTTTT | 0.979
3 | TTGCTTAACT | 1.01
4 | TTGCTTTTCC | 1.11
5 | TTGGAAACTA | 1.13
6 | TTGGAACG | 0.976
7 | TTGGAACTAC | 1.22
8 | TTGGAAGACT | 1.05
9 | TTGGAAGGCC | 0.953
10 | TTGGAATG | 1.02
11 | TTGGACACTT | 1.02
12 | TTGGACCTTG | 0.993
13 | TTGGACGCTG | 1
14 | TTGGACTTGC | 0.991
15 | TTGGAGCCAA | 2.77
16 | TTGGAGTAAT | 1.34
17 | TTGGATAACT | 0.98
18 | TTGGATCGAG | 0.996
19 | TTGGCACCTC | 0.948
20 | TTGGCATTA | 1.01
21 | TTGGCCACTT | 1
22 | TTGGCCCTGT | 0.993
23 | TTGGCGCATT | 1.05
24 | TTGGCGCCGG | 0.941
25 | TTGGCTAA | 0.937

Row | Sequence | switch fluorescence ratio
26 | TTGGGACCTT | 1.1
27 | TTGGGCAGCG | 1.04
28 | TTGGGCGTAG | 0.999
29 | TTGGGGCCTT | 1.14
30 | TTGGGTGGCC | 1.08
31 | TTGGTAATAC | 1.09
32 | TTGGTATCAG | 1.01
33 | TTGGTATCGG | 0.997
34 | TTGGTCCATA | 1.04
35 | TTGGTCCCGC | 1.03
36 | TTGGTCTGCA | 0.98
37 | TTGGTGATG | 1.02
38 | TTGGTTCCCC | 1.07
39 | TTGGTTGTCT | 0.997
40 | TTGGTTGTG | 1.02
41 | TTGTAAAGAT | 0.999
42 | TTGTAACC | 1.01
43 | TTGTAAGTTC | 0.951
44 | TTGTAGAGGT | 1.02
45 | TTGTAGGCAG | 0.976
46 | TTGTAGGGGC | 1.04
47 | TTGTAGTAAG | 1
48 | TTGTATAGCC | 1
49 | TTGTATCTGC | 0.955
50 | TTGTATTGGC | 0.966

Row | Sequence | switch fluorescence ratio
51 | TTGTATTTT | 1.02
52 | TTGTCAAAAT | 1.06
53 | TTGTCAATAT | 1.16
54 | TTGTCACTTG | 1.01
55 | TTGTCAGAAT | 0.987
56 | TTGTCGCCT | 0.963
57 | TTGTCGGGGG | 1.03
58 | TTGTCGGTGC | 1.11
59 | TTGTCGTAAT | 1.02
60 | TTGTCTATGG | 0.981
61 | TTGTCTTGTA | 1.04
62 | TTGTGATGAC | 0.995
63 | TTGTGCAGT | 1.07
64 | TTGTGCCCGA | 1.01
65 | TTGTGCGGAT | 0.987
66 | TTGTGCTCGT | 1.01
67 | TTGTGGGCAC | 1.05
68 | TTGTGGGTGC | 0.958
69 | TTGTGTGGT | 1.04
70 | TTGTGTGTCC | 0.99
71 | TTGTGTGTCT | 0.966
72 | TTGTTAGGAC | 0.986
73 | TTGTTGACC | 1.01
74 | TTGTTGATAT | 1.04
75 | TTGTTGCCGG | 1.09

Row | Sequence | switch fluorescence ratio
76 | TTGTTGCTAA | 1.13
77 | TTGTTGGAG | 0.978
78 | TTGTTTATTG | 0.994
79 | TTGTTTGAGC | 0.972
80 | TTGTTTTGT | 1.01
81 | TTTAAAACAT | 1.24
82 | TTTAAAAGCG | 0.965
83 | TTTAAATGCT | 1.03
84 | TTTAAATTAC | 1.01
85 | TTTAACATGA | 1.03
86 | TTTAACCAAC | 1.09
87 | TTTAACCAG | 1.14
88 | TTTAACCTTG | 1.04
89 | TTTAACGTGC | 0.998
90 | TTTAACTGAG | 1.02
91 | TTTAATATTG | 1.04
92 | TTTAATCCAC | 0.995
93 | TTTAATTTAC | 1.05
94 | TTTACAATTA | 1.08
95 | TTTACCCTCG | 1.09
96 | TTTACCTCGG | 1.03
97 | TTTAGAAAAG | 1.04
98 | TTTAGAACGG | 1.01
99 | TTTAGAAGAT | 0.969
100 | TTTAGATGAT | 0.981
